{"source": "paper PMC4336329", "about": "(PLoS ONE, 2015)", "note": "The whole screen tested about 310,000 compounds, of which about 2,200 (0.71%) showed an effect of 50% or more. The effect is printed as a negative number. The list shows a part of the results."}
{"target": "human ether-à-go-go-related gene (hERG) potassium channel (human, UniProt Q12809)", "sequence (Q12809 whole entry, looked up)": "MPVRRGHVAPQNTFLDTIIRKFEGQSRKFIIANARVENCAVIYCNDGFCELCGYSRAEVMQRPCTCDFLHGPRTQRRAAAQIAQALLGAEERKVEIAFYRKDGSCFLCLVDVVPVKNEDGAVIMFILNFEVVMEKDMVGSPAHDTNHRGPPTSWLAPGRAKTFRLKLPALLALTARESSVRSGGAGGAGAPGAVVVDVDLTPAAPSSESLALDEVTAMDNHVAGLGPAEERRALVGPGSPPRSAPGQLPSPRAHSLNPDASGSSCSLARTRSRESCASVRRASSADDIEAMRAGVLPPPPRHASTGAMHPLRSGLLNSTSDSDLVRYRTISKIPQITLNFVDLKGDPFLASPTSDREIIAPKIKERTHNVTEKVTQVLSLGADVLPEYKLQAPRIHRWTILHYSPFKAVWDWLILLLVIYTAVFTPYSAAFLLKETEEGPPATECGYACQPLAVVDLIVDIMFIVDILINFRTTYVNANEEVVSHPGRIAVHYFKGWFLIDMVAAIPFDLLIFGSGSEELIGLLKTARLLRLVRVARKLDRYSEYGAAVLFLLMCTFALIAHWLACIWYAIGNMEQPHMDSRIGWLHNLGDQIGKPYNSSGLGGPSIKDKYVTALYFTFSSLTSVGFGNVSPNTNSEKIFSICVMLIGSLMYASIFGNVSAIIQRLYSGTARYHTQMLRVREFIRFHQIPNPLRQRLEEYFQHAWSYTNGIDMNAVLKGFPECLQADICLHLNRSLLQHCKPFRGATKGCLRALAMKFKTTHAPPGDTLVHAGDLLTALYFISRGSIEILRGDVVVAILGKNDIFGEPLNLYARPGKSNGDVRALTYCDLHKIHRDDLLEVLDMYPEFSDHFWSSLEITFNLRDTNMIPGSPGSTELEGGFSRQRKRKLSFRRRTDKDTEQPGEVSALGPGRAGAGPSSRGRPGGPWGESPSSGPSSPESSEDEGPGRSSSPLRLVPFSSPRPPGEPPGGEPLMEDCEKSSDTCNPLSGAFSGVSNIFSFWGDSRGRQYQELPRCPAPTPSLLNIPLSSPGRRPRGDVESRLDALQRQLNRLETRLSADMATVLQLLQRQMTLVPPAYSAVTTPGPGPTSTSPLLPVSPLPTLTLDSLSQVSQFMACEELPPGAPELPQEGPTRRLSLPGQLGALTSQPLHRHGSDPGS", "assay": "primary screen, population patch clamp on CHO cells stably expressing hERG", "units": {"hERG current change (%, negative = inhibition) at 1uM": "%"}}
{"smiles": "CCCCc1nc2cc(C(=O)N3CCN(c4cnccn4)CC3)ccc2o1", "hERG current change (%, negative = inhibition) at 1uM": 1.87}
{"smiles": "C=CCOc1ccccc1/C=c1\\sc2nc(-c3oc4ccccc4c3C)nn2c1=O", "hERG current change (%, negative = inhibition) at 1uM": -3.41}
{"smiles": "Cl.N=c1ccn(CC(=O)NC(N)=O)c2ccccc12", "hERG current change (%, negative = inhibition) at 1uM": 2.02}
{"smiles": "Cc1cccc(Nc2ccncc2S(N)(=O)=O)c1", "hERG current change (%, negative = inhibition) at 1uM": 8.74}
{"smiles": "O=C(CCCSc1ccccc1)Nc1nc(-c2ccco2)c(-c2ccco2)s1", "hERG current change (%, negative = inhibition) at 1uM": 5.77}
{"smiles": "COc1cc2c(cc1OC)-c1c(OC)c(OC)cc3ccnc(c13)C2=O", "hERG current change (%, negative = inhibition) at 1uM": 3.86}
{"smiles": "COc1ccc(/C(O)=C2/C(=O)C(=O)N(CC3CCCO3)C2c2cccc(OC)c2)cc1", "note": "(stereo not drawn)", "hERG current change (%, negative = inhibition) at 1uM": 13.8}
{"smiles": "CC1CCN(S(=O)(=O)c2cccc(C(=O)Oc3ccc([N+](=O)[O-])cc3)c2)CC1", "hERG current change (%, negative = inhibition) at 1uM": 13.1}
{"smiles": "CC(C)(C)c1[nH]nc2c1C(c1ccncc1)C(C#N)=C(N)O2", "note": "(stereo not drawn)", "hERG current change (%, negative = inhibition) at 1uM": 14}
{"smiles": "Cc1ccc(-c2nc(CN(C)C3CCOCC3)c(C)o2)s1", "hERG current change (%, negative = inhibition) at 1uM": 0.24}
{"smiles": "O=C(O)c1nccnc1C(=O)Nc1ccccc1-c1ccccc1", "hERG current change (%, negative = inhibition) at 1uM": 4.75}
{"smiles": "CCOC(=O)Cn1ccc(NC(=O)c2ccc3c(c2)OCO3)n1", "hERG current change (%, negative = inhibition) at 1uM": 13.5}
{"smiles": "O=C(O)CSCC(=O)N1CCN(c2ncnc3scc(-c4ccccc4)c23)CC1", "hERG current change (%, negative = inhibition) at 1uM": 13.6}
{"smiles": "O=C(CCN1C(=O)c2ccncc2C1=O)Nc1ccc2c(c1)OCCO2", "hERG current change (%, negative = inhibition) at 1uM": 3.29}
{"smiles": "CC(=O)Nc1ccc(S(=O)(=O)NCCC(=O)N2CCc3ccccc32)cc1", "hERG current change (%, negative = inhibition) at 1uM": 12.1}
{"smiles": "NCC(c1ccccc1)c1c[nH]c2ccccc12", "note": "(stereo not drawn)", "hERG current change (%, negative = inhibition) at 1uM": 15.5}
{"smiles": "COc1ccc(CN(Cc2nc3ccccc3c(=O)[nH]2)C(=O)NC2CCCCC2)cc1", "hERG current change (%, negative = inhibition) at 1uM": 6.95}
{"smiles": "Cc1cc(=O)nc2c3ccccc3n(C(C)C(=O)NCCC(C)C)n12", "note": "(stereo not drawn)", "hERG current change (%, negative = inhibition) at 1uM": 14.9}
{"smiles": "CC1(C)CC2CC(C)(CN2C(=S)Nc2ccccc2F)C1", "note": "(stereo not drawn)", "hERG current change (%, negative = inhibition) at 1uM": 11.2}
{"smiles": "COCCCNC(=O)c1ccc2c(=O)n(Cc3ccc(Cl)cc3)c(=S)[nH]c2c1", "hERG current change (%, negative = inhibition) at 1uM": 19.7}
{"smiles": "O=C(CSc1nnc(CNC(=O)c2ccco2)o1)NC1CCCC1", "hERG current change (%, negative = inhibition) at 1uM": 7.3}
{"smiles": "Cc1cc(C)nc(NS(=O)(=O)c2ccc(NC(=O)c3ccccc3C)cc2)n1", "hERG current change (%, negative = inhibition) at 1uM": 15.4}
{"smiles": "Cc1ccc(C(=O)NCC(=O)Nc2cccc(C(F)(F)F)c2)cc1", "hERG current change (%, negative = inhibition) at 1uM": 14.1}
{"smiles": "CSc1ccc(CN(C)C(=O)CNC(=O)c2sc3ccccc3c2Cl)cc1", "hERG current change (%, negative = inhibition) at 1uM": 13.2}
{"smiles": "CCN(CCCNC(=O)CC(C(=O)N1CCc2ccccc21)n1ccnc1)c1ccccc1", "note": "(stereo not drawn)", "hERG current change (%, negative = inhibition) at 1uM": -12}
{"smiles": "Cc1occc1C(=O)N1CCCC(N2CCN(c3ccccc3F)CC2)C1", "note": "(stereo not drawn)", "hERG current change (%, negative = inhibition) at 1uM": 2.63}
{"smiles": "O=C(NCCc1cccs1)C1CC(c2ccc([N+](=O)[O-])cc2)=NO1", "note": "(stereo not drawn)", "hERG current change (%, negative = inhibition) at 1uM": -20.3}
{"smiles": "Cc1[nH]c(=O)c(C(=O)c2cc(Cl)ccc2O)cc1C(=O)O", "hERG current change (%, negative = inhibition) at 1uM": 4.98}
{"smiles": "Cc1ccc(NC(=O)C2CC(=O)Nc3nc4ccccc4n32)c(C)c1", "note": "(stereo not drawn)", "hERG current change (%, negative = inhibition) at 1uM": 6.22}
{"smiles": "Cc1ccc(COc2ccccc2C(=S)N2CCCC2)cc1", "hERG current change (%, negative = inhibition) at 1uM": 16.3}
{"smiles": "CCc1ccc(-c2nc(CS(=O)CC(=O)NCc3cccnc3)c(C)o2)cc1", "note": "(stereo not drawn)", "hERG current change (%, negative = inhibition) at 1uM": 2.28}
{"smiles": "Cc1ccc(N2C(=O)NC(=O)C(CCc3ccccn3)(Cc3ccc(F)cc3)C2=O)cc1", "note": "(stereo not drawn)", "hERG current change (%, negative = inhibition) at 1uM": 13.6}
{"smiles": "C=CCC1Cc2c(cccc2[N+](=O)[O-])C(CC=C)N1", "note": "(stereo not drawn)", "hERG current change (%, negative = inhibition) at 1uM": 0.936}
{"smiles": "COc1cccc(-n2c(SCC(=O)NCC3CCCO3)nc3c(c2=O)SCC3)c1", "note": "(stereo not drawn)", "hERG current change (%, negative = inhibition) at 1uM": 13.6}
{"smiles": "COC(=O)CSc1nnc(COc2ccc([N+](=O)[O-])cc2)n1C", "hERG current change (%, negative = inhibition) at 1uM": -9.79}
{"smiles": "Cn1c(=S)n(/N=C/c2ccc3c(c2)OCO3)c2ccccc21", "hERG current change (%, negative = inhibition) at 1uM": 11.5}
{"smiles": "CN(C)c1ccc(-n2cccc2/C=N/n2cnnc2)cc1", "hERG current change (%, negative = inhibition) at 1uM": 12.6}
{"smiles": "CC(C)(C)OC(=O)N1Cc2ccccc2C[C@H]1C(=O)O", "hERG current change (%, negative = inhibition) at 1uM": 13.6}
{"smiles": "Cc1ccc(C(=O)NNC(=O)C2CSC3(C)CCC(=O)N23)cc1", "note": "(stereo not drawn)", "hERG current change (%, negative = inhibition) at 1uM": 15.7}
{"smiles": "O=C(NC1=NCCS1)C12CC3CC(CC(C3)C1)C2", "hERG current change (%, negative = inhibition) at 1uM": 12.5}
{"smiles": "CCC1CCCCN1C(=O)CCC(=O)Nc1nnc(C(F)(F)F)s1", "note": "(stereo not drawn)", "hERG current change (%, negative = inhibition) at 1uM": 14.5}
{"smiles": "Cc1ccc(CN(c2ccc(C(=O)N3CCOCC3)cc2)S(C)(=O)=O)cc1", "hERG current change (%, negative = inhibition) at 1uM": 8.04}
{"smiles": "COC(=O)c1ccc(/C=C(\\C#N)c2nc3ccccc3s2)cc1", "hERG current change (%, negative = inhibition) at 1uM": 9.32}
{"smiles": "COc1ccc(N2CCCC2)c(NC(=O)c2ccc([N+](=O)[O-])o2)c1", "hERG current change (%, negative = inhibition) at 1uM": 11.3}
{"smiles": "CCOC(=O)c1cnc2c(c(C)nn2C)c1Oc1ccc(Cl)cc1", "hERG current change (%, negative = inhibition) at 1uM": 16.7}
{"smiles": "CCOCC(=O)Nc1nnc(COc2ccc(Cl)cc2)s1", "hERG current change (%, negative = inhibition) at 1uM": 2.61}
{"smiles": "Cc1c(CCC(=O)NCCCN2CCCC2=O)c(=O)oc2c(C)c(O)ccc12", "hERG current change (%, negative = inhibition) at 1uM": 11.6}
{"smiles": "CCC(C)(C)NC(=O)C(c1ccc(OC)cc1)N(CCOC)C(=O)CCC(=O)Nc1nccs1", "note": "(stereo not drawn)", "hERG current change (%, negative = inhibition) at 1uM": 8.8}
{"smiles": "COC(CNC(=O)c1ccc(CS(=O)(=O)c2ccc(Br)cc2)o1)OC", "hERG current change (%, negative = inhibition) at 1uM": 10.1}
{"smiles": "CN(Cc1ccc(F)cc1)C(=O)c1cccc(S(=O)(=O)N2CCN(c3ccc(F)cc3)CC2)c1", "hERG current change (%, negative = inhibition) at 1uM": -9.89}
{"smiles": "CCC(NC(=O)CCc1nnc(-c2cc(C)on2)o1)C12CC3CC(CC(C3)C1)C2", "note": "(stereo not drawn)", "hERG current change (%, negative = inhibition) at 1uM": 11.2}
{"smiles": "CSc1cnc2c(=O)[nH]c(=O)n(C)c2n1", "hERG current change (%, negative = inhibition) at 1uM": 7.35}
{"smiles": "CC1(c2nnc(-c3ccc(Cl)cc3)o2)CC(c2ccc(Cl)cc2)=NO1", "note": "(stereo not drawn)", "hERG current change (%, negative = inhibition) at 1uM": 15.5}
{"smiles": "Cc1cc(C(=O)N(C)CC(=O)Nc2ccc(F)c(F)c2F)no1", "hERG current change (%, negative = inhibition) at 1uM": 16.8}
{"smiles": "Cc1csc(C(C#N)C(=O)c2ccc(S(=O)(=O)N3CCCC3)cc2)n1", "note": "(stereo not drawn)", "hERG current change (%, negative = inhibition) at 1uM": 12.2}
{"smiles": "Fc1cccc(F)c1/C=N/Nc1ccccn1", "hERG current change (%, negative = inhibition) at 1uM": 16.5}
{"smiles": "N#CCCN(Cc1cccs1)C(=O)Nc1ccccc1", "hERG current change (%, negative = inhibition) at 1uM": 7.86}
